# From publication PMC4336329 (PLoS ONE, 2015)
# In all, about 310,000 compounds went through this assay and about 2,200 (0.71%) showed an effect of 50% or more. Effects have a minus sign here. The list shows a part of the results.
# Target: human ether-à-go-go-related gene (hERG) potassium channel (human, UniProt Q12809)
# Test: primary screen, population patch clamp on CHO cells stably expressing hERG
# human ether-à-go-go-related gene (hERG) potassium channel, sequence (Q12809 whole entry, looked up): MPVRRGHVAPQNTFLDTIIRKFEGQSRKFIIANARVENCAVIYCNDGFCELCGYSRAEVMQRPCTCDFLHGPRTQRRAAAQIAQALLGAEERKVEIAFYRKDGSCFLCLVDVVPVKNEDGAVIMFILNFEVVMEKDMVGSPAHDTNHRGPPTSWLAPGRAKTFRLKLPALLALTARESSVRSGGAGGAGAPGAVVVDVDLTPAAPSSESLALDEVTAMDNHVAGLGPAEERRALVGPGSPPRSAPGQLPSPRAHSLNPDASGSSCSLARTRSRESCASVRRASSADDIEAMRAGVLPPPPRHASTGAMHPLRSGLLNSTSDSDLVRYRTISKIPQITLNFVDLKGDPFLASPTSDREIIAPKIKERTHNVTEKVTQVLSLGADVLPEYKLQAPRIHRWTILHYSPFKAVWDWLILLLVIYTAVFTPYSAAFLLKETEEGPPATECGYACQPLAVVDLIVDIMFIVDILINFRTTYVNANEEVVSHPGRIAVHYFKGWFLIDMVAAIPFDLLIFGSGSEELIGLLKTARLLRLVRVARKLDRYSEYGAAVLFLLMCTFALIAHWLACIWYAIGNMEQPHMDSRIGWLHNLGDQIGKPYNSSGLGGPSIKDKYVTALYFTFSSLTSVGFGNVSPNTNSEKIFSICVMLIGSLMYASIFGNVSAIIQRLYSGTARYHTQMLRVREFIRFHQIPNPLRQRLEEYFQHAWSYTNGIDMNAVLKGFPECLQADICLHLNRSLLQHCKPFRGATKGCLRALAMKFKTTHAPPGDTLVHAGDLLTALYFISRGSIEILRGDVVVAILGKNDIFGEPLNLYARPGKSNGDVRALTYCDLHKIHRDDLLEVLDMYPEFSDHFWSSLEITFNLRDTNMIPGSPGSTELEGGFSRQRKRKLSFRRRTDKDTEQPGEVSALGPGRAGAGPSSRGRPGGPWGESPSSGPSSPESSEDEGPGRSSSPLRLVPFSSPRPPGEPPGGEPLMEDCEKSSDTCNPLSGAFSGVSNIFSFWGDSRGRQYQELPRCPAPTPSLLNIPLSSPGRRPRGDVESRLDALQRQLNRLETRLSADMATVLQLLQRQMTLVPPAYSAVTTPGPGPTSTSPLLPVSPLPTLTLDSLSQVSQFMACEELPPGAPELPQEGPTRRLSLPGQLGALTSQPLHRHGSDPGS
row,Compound,"hERG current change (%, negative = inhibition) at 1uM [%]"
1,NS(=O)(=O)c1ccc(NC(=S)NC(=O)/C=C/c2ccco2)cc1,14.3
2,CN(C(=O)COC(=O)/C=C/c1ccc(Cl)c(Cl)c1)c1c(N)n(Cc2ccccc2)c(=O)[nH]c1=O,19.7
3,O=S(=O)(c1ccc(F)c(F)c1)N1CCN(c2ncccn2)CC1,9.41
4,COc1cccc(C(=O)CN2C(=O)C(C)(C)Oc3ccc(C(=O)N4CCOCC4)cc32)c1,17.1
5,Cc1cccc(NC(=O)c2cccc(NC(=O)Cc3cccs3)c2)c1,7.98
6,Fc1ccc2[nH]c3c(N4CCc5ccccc5C4)ncnc3c2c1,14.2
7,CC1(C)OC(=O)N(CCc2ccccc2)C1(C)O (stereo not drawn),-4.43
8,O=C(NCc1ccco1)c1cc2nc(-c3ccc4c(c3)OCO4)cc(C(F)(F)F)n2n1,10.9
9,COc1cc(/C=N/Nc2nc(N3CCCC3)nc(N3CCCC3)n2)ccc1O,-4.08
10,c1ccc2c(COn3nnc4ccccc43)cccc2c1,-7.25
11,C=CCN(c1ccccc1)S(=O)(=O)c1cccc(C(=O)N(CC)CC(=O)Nc2c(F)cccc2F)c1,12.1
12,Nc1ccc(CNC(=O)OCC2c3ccccc3-c3ccccc32)cc1,5.26
13,CC(C)c1ccc2oc(-c3cc(N)ccc3O)nc2c1,10.7
14,CN1CC(=O)N=C1N.Cl,-0.973
15,Cc1cccc(C)c1Nc1nc2ccccc2o1,-2.32
16,CCC(C(=O)N1CC2(C)CC1CC(C)(C)C2)N1C(=O)c2ccccc2C1=O (stereo not drawn),-2.42
17,CC1(C)CC(=O)/C(=C(\O)c2ccccc2)C(=NCCc2ccccc2)C1,18.2
18,COc1ccc(NC(=O)Nc2ccc(F)cc2F)c(C)c1,9.23
19,COc1ccc(CNCCC2(O)CC(C)N(C)CC2C)cc1OC.Cl (stereo not drawn),5.27
20,Cc1cc(SCC(=O)c2cc3ccccc3o2)nc2ccccc12,16.3
21,O=C(COC(=O)c1ccco1)NCc1ccco1,8.77
22,CSc1ccccc1C(=O)Nc1cccc([N+](=O)[O-])c1C,6.15
23,CN(C)/N=C1\CCS(=O)(=O)c2sccc21,4.8

row,Compound,"hERG current change (%, negative = inhibition) at 1uM [%]"
1,CC(C)CC(OC(=O)c1ccco1)C(=O)NC1CCCCC1 (stereo not drawn),10.2
2,CCOc1ccc(/C=N/N(C)c2ccccc2)cc1OC,11.6
3,O=C(NCc1ccccc1F)C1CCN(C(=O)Nc2ccc(F)cc2)CC1,11.8
4,Cc1ccc(NC(=O)CCC(=O)c2cccs2)c(O)c1,12.7
5,COc1ccccc1-c1cn(-c2ccccc2)c(=S)[nH]1,9.44
6,O=C(Cc1ccc(S(=O)(=O)N2CCOCC2)s1)Nc1ccccc1Br,14.9
7,COc1ccc(S(=O)(=O)N2CCCOC2CNC(=O)C(=O)NCc2ccccn2)cc1 (stereo not drawn),5.91
8,CCOc1cccc(C(c2c(C)n(C)n(-c3ccccc3)c2=O)c2c(C)n(C)n(-c3ccccc3)c2=O)c1OC,12
9,CC(C)CCOC(=O)C(C)Sc1n[nH]c(=O)[nH]c1=O (stereo not drawn),-0.316
10,COC(=O)CCN1CCN(S(=O)(=O)c2ccc3c(c2)OCCO3)CC1,13.4
11,COC(=O)c1sc(NC(=O)c2c(F)cccc2F)c(C#N)c1C,8.62
12,O=C(O)c1ccc(S(=O)(=O)N2CCc3ccccc3C2)cc1,15.1
13,CCCOC(=O)NC(CC)COC(=O)Nc1cccc(C)c1C (stereo not drawn),-0.198
14,Cc1ccc(-c2nn(-c3ccccc3)cc2CO)cc1,-0.445
15,Cc1cccc2c(C(=O)Nn3cnnc3)cc(-c3ccccc3Cl)nc12,14.3
16,O=C(O)c1ccc(CSCc2c(F)cccc2Cl)o1,-5.49
17,C=CCNC(=O)c1cnc(-c2ccccc2)nc1-c1ccccc1,17.4
18,COc1ccc(CCN(C(=O)c2cccc(F)c2)C2CC(=O)N(c3ccccc3)C2=O)cc1 (stereo not drawn),0.224
19,O=C(COc1ccc(OCc2ccccc2)cc1)NN=C1CCCC1,18.2
20,CCOC(=O)CNC(=O)CSc1nc(C)cc(C)c1C#N,19
21,Oc1ccccc1/C=N/Nc1nc2ccccc2o1,11.8
22,COc1ccc(C(=O)NCC(=O)N/N=C/c2c(C)[nH]c3ccccc23)cc1OC,7.52
23,COC(=O)/C(C#N)=C/N(C)C,11.5

row,Compound,"hERG current change (%, negative = inhibition) at 1uM [%]"
1,Cc1nc(SCCC(=O)O)c2cc(-c3ccccc3)sc2n1,6.67
2,CCOc1ccc(S(=O)(=O)N2CCN(C(=S)NCc3ccco3)CC2)cc1,1.75
3,O=[N+]([O-])c1cccc(/C([O-])=C(/C(=S)Nc2ccccc2)[n+]2ccccc2)c1,2.99
4,COC(=O)C1=C(c2cc3ccccc3o2)C[C@@H]2CC[C@H]1N2C(=O)NCc1ccc(C(F)(F)F)cc1,9.4
5,O=C(O)c1ccc(Oc2ccc(C(F)(F)F)cn2)cc1,8.5
6,Fc1ccc(N=Cc2ccc[nH]2)cc1,15.1
7,OC1(C#CCN2CCOCC2)CCCCC1,6.88
8,Cc1cccc(CCNS(=O)(=O)c2cc3c(cc2C)NC(=O)CO3)c1,-13.3
9,Cc1ccc(S(=O)(=O)N2c3ccccc3CC2C)cc1 (stereo not drawn),20.3
10,O=C(Nc1ccc(Cl)cn1)c1ccccc1[N+](=O)[O-],7.12
11,Cc1nn(S(=O)(=O)c2ccc(C(C)C)cc2)c(C)c1S(=O)(=O)N1CCOCC1,9.06
12,Cc1ccsc1C(=O)OCC(=O)NC1CCS(=O)(=O)C1 (stereo not drawn),9.72
13,COCCCNC(=O)CSC1=Nc2ccccc2C2=NC(c3ccccc3)C(=O)N12 (stereo not drawn),1.53
14,O=C(N/N=C/c1cccs1)c1cccc(NC(=O)c2ccccc2Cl)c1,5.36
15,CCCCn1c(=S)[nH]c2ccc(N3CCOCC3)cc2c1=O,8.71
16,Oc1ccc(C[C@@H]2CNC(=S)N2CCc2cc(C(F)(F)F)cc(C(F)(F)F)c2)cc1,11.9
17,CCN(CC)c1ccc(NC(=O)CSc2nc3ccccc3c(=O)n2-c2cc(S(=O)(=O)N(C)C)ccc2C)cc1,13.1
18,C=C(C)C1Cc2nc(N)nc(C)c2C1 (stereo not drawn),10.3
19,Cc1nc2c(C)cccn2c1/C(O)=C1\C(=O)C(=O)N(CCN2CCOCC2)C1c1cccs1 (stereo not drawn),10.1
20,O=C(NC12CC3CC(CC(C3)C1)C2)C1CC(=O)N(c2ccccc2)C1 (stereo not drawn),10.4
21,Cc1cc(NC(=O)CSCCO)no1,14
22,CC(=O)N(CC1CCCO1)C1(C(=O)NC2CCCC2)CCCCC1 (stereo not drawn),10.8
23,COCCNc1c(-c2ccc(OC)cc2)nc2ccc(Cl)cn12,-3.29

row,Compound,"hERG current change (%, negative = inhibition) at 1uM [%]"
1,O=C(NNC(=S)Nc1ccc(F)cc1)C1[C@H]2CCCC[C@@H]12 (stereo partly drawn),7.01
2,CCOC(=O)c1cc(NC(=O)CNCC(c2ccccc2)N(C)C)cc(C(=O)OCC)c1.O=C(O)C(=O)O (stereo not drawn),-14.8
3,NS(=O)(=O)c1ccc(CCNC(=O)c2ccc([N+](=O)[O-])s2)cc1,8.69
4,O=C(NCCCC(=O)N1CCOCC1)c1cccnc1,10.3
5,CCOC(=O)N1CCN(Cc2ccc(O)c3ncccc23)CC1,5.54
6,CC(C)N(C(=O)CN1C(=O)NC2(CCCCCC2)C1=O)C(C)C,9.1
7,O=C(O)Cc1ccc(NC(=O)c2ccc3c(c2)C(=O)N(Cc2ccco2)C3=O)cc1,0.071
8,CS(=O)(=O)N(CC(=O)Nc1cccc(F)c1)Cc1ccccc1,20.1
9,ClCc1nc2ccccc2c2ccccc12,9.29
10,Cc1ccc(N=Nc2c(N)[nH]n3c(=O)cc(-c4ccccc4)nc23)cc1,10.6
11,Nc1ccc2c(c1)N1CCN=C1S2,20
12,CC1CCCN(c2nc3nonc3nc2N2CCCC(C)C2)C1 (stereo not drawn),9.07
13,Cc1onc(-c2ccccc2)c1C(=O)OCCOc1cccc(Cl)c1,0.232
14,COc1ccc(N(Cc2ccccc2)C(=O)c2ccccc2[N+](=O)[O-])cc1,5.87
15,CN1CCN(C(=O)C2=C[C@H](c3coc4ccccc4c3=O)C[C@H](OCCCCO)O2)CC1,0.174
16,Cc1nc2nc(C)c(CCC(=O)NCc3ccc4c(c3)OCO4)c(C)n2n1,-7.73
17,COc1ccc(OCC(=O)Nc2cccc(C(=O)Nc3ccccc3C(=O)O)c2)cc1,5.99
18,Cc1ccccc1NC(=O)Cc1nc(COC(=O)c2ccc(Cl)nc2)cs1,10.4
19,Clc1ccc2nc(-c3ccccn3)c(Nc3ccc4c(c3)OCO4)n2c1,4.05
20,COc1ccc(NC(=O)c2sc3ncnc(N4CCN(c5ccccn5)CC4)c3c2C)cc1Cl,13.6
21,Cc1nc(C)c(-c2nnc(-c3cccc(S(=O)(=O)N(C)C)c3)o2)cc1C(=O)NN,13.5
